Test results: patent US20220348651A1, “ENTPD2 ANTIBODIES, COMBINATION THERAPIES, AND METHODS OF USING THE ANTIBODIES AND COMBINATION THERAPIES” (Novartis AG, priority 2019, published 2022)

How the values were obtained:
[1] = Anti-drug antibody (ADA) formation in cynomolgus monkey PK study; type: in vivo
Text: Anti-drug antibody (ADA) formation was also examined in this study.

NIH/3T3 cells = assay: Cross reactivity: FACS binding to NIH/3T3 control cells; conditions: 50 nM antibody
Protocol: FACS screening: Specific binding of candidate antibodies to endogenously expressed ENTPD2 was assessed by flow cytometry. Cells were rinsed thoroughly with 1×PBS and treated with Accutase (Millipore #SCR005) to lift from growth plates and resuspended at approximately 1×10^5 cells/90 μL in 1× FACS buffer (2% FBS+0.1% NaN3 in PBS). In a 96-well U-bottom plate, 10 μL of 10× antibody solution in FACS buffer was pre-seeded and 90 μL of cell suspension was added. Cell were incubated for 30 minutes at 4° C., washed 1× with cold PBS and resuspended in 100 μL of 1:500 secondary antibody 1× FACS buffer (Allophycocyanin conjugated F(ab′)2 goat anti-human IgG, Fcγ specific; Jackson Immunoresearch, Cat#109-136-098). After additional incubation for 15 min at 4° C., cells were washed twice with PBS and resuspended in 100 μL of 1×FACS buffer with 4 μg/mL propidium iodide (Life Technologies, Cat#P3566). Geometric mean fluorescence intensity was calculated on live single cells using FlowJo software.
Cross reactivity Human ENTPD1 (NP_001767) expressing NIH/3T3 cells were generated using a retroviral transduction approach. 72 hrs post transduction, engineered cells were stained with the anti-Human CD39/ENTPD1 APC-conjugated Antibody (R&D systems, Minneapolis, Minn.) and live cells that expressed human ENTPD1 were separated from the rest of the population via fluorescence activated cell sorting. Stable expression of ENTPD1 was periodically re-confirmed by FACS with the above described anti-Human CD39/ENTPD1 APC-conjugated Antibody (1:100).

[2] = molecular target: T1, recombinant human ENTPD2 (residues 29-462) (Homo sapiens, UniProt Q9Y5L3); assay: Biochemical human ENTPD2 functional assay (Transcreener ADP2 TR-FRET); conditions: FIG. 15
T1 construct: residues 29-462 of human or cyno ENTPD2 were cloned into expression vector; GP67 signal peptide (N); made in house; host or cells: High Five (Trichoplusia ni) insect cells, baculovirus
T1 sequence (Q9Y5L3 29-462): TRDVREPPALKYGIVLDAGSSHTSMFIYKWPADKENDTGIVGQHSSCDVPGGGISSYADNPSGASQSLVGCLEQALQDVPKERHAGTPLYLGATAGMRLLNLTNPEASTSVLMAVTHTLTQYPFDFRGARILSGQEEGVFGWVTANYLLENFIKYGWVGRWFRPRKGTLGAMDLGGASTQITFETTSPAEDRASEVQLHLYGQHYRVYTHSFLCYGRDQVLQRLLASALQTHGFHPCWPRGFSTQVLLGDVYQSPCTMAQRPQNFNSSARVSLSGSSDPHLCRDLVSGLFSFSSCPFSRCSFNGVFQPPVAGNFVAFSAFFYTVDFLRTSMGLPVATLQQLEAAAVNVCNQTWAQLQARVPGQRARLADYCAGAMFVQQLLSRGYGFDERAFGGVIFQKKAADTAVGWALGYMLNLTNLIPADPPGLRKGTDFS
Text: Biochemical and cell-based functional assays were developed in-house to understand functional impact of anti-ENTPD2 Abs against purified extracellular domain of ENTPD2 (residues 29-462), as well as against the fully intact protein in the context of the native cell-based conformation. ENTPD2 hydrolyzes ATP to ADP, which can subsequently be detected using the HTRF Transcreener ADP2 TR-FRET Red Assay (BellBrook Labs, Madison, Wis.) where ENTPD2-produced ADP would compete with the ADP Tracer for binding to the anti-ADP-Tb antibody. The resulting signal is inversely proportional to the concentration of ADP in the sample. […]
HTRF signal (Emission at 620 nm and 665 nm) was assessed in both assays using the Envision plate reader in HTRF mode (Perkin Elmer, Waltham, Mass.). HTRF ratio was determined using the following formula: HTRF ratio=R=Emission at 665 nm/Emission at 620 nm×10,000. Subsequently % Residual Activity and % Inhibition were determined as follows:
Where R0% is the HTRF ratio of the negative control (0% enzyme activity), and R100% is the HTRF ratio of the positive control (100% enzyme activity). Data were analyzed in Microsoft Excel and graphed using GraphPad's Prism 7.0 software and IC50 values were obtained using non-linear regression, log (agonist) vs. response-variable slope (four parameters) analysis.

[3] = system: cynomologus (cyno) ENTPD2; assay: Biacore (SPR) affinity to cyno ENTPD2 ECD; type: binding, cynomolgus monkey; conditions: 25° C.
Protocol: Biacore Screening: Affinity was measured by determining the kinetic rate constants using surface plasmon resonance (SPR) on a Biacore T200 or T100 with the T200 sensitivity upgrade instrument (Biacore, GE Healthcare). Antibodies were captured on CM5 sensor chips (Biacore, GE Healthcare) prepared with a mouse anti-human IgG Fc antibody (ThermoFisher catalogue #05-4200) amine coupled to the surface. […] ENTPD2 analytes were allowed to associate for 180 s and dissociate for up to 1800 s depending on the off-rate of the antibody at a flow rate of 30 μL/min. The running buffer was PBS pH 7.2 (prepared from a Corning 10X stock, cat#46-013-CM)+0.05% Tween 20. Regeneration was accomplished with 30 s injections of 3 or 4 M MgCl2 to remove all the captured antibody and remaining complex from the surface, after which fresh antibody was captured. The raw data were analyzed using Biacore T200 Evaluation Software version 1.0 and fit to a 1:1 binding model, with all parameters set to fit globally except for RI, which was set to fit locally.

B1: mAb1: humanized anti-human ENTPD2 human IgG1 from mAb17; heavy chain SEQ ID NO: 12, light chain SEQ ID NO: 23 (antibody)
heavy: EVQLVQSGAEVKKPGESLKISCKASGYTFTDYNMDWVRQMPGKGLEWMGDINPKYDISTYNQQFKGQVTISADKSIRTAYLQWSSLKASDTAMYYCARRGFFLYYGINYYYFDVWGQGTLVTVSSASTKGPSVFPLAPSSKSTSGGTAALGCLVKDYFPEPVTVSWNSGALTSGVHTFPAVLQSSGLYSLSSVVTVPSSSLGTQTYICNVNHKPSNTKVDKRV[here human IgG1 Fc without letters]
light: DIQLTQSPSSLSASVGDRVTITCSASSSVSYIHWFQQKPGKAPKLLIYSTSNLASGVPSRFSGSGSGTFFTLTISSLQPEDFATYFCHQWSSYPWTFGQGTKVEIKRTVAAPSVFIFPPSDEQLKSGTASVVCLLNNFYPREAKVQWKVDNALQSGNSQESVTEQDSKDSTYSLSSTLTLSKADYEKHKVYACEVTHQGLSSPVTKSFNRGEC
ADA detected (animals) ([1]; 3, 10, 30 and 100 mg/kg i.v.): one (10 mg/kg) of nine animals | effect of ADA on plasma exposure ([1]; ADA-positive animal): reduced the plasma exposure | Apparent FACS binding at 50 nM (NIH/3T3 cells): No binding | inhibition of the catalytic activity of recombinant human ENTPD2 [2]: potently inhibit | ka [3]: 360000 M⁻¹ s⁻¹ | kd [3]: 0.0012 s⁻¹
